Assay results: the RNAGym collection of RNA variant scans (doi:10.7554/elife.90254)
Read counts are not given, so values of variants with three or more changes are uncertain.

B1: LINE1-mini (parent)
chain: GGCAGAGCUCAACACAGCGUGGCAAAGUGGCUGUGGCUAGACUGCC

Variants of: B1
Assay: self-cleavage, relative activity (ratio to wild type); higher = more cleavage; in vitro, sequencing; the parent is a self-cleaving ribozyme

Row | Variant | self-cleavage
1 | C10A G30A U38C | 0.25
2 | C10A G17C A26G C45U | 0.02
3 | C10A A25U U32G G36U C45U | 0.01
4 | C10A C31U C37A | 0.01
5 | C10A G30U A39C | 0.09
6 | C10A A24U G29A A39C | 0.05
7 | C10A G30A C31G | 0.01
8 | C10A C18G A24G U34G | 0.04
9 | C10A G19C A25C G27C G33A U34A C37U | 0.01
10 | C10A C42G U43C | 0.01
11 | C10A C18A A26G G35A G40A | 0.01
12 | C10A G29U A39G | 0.03
13 | C10A C18A G22A C46A | 0.04
14 | C10A G19U A39G | 0.01
15 | C10A G19U A39U | 0.16
16 | C10A C13A U34C G40C | 0
17 | C10A A24C G27A C45G | 0.01
18 | C10A C18G C23U U43C | 0.02
19 | C10A C23A G29C C31G | 0.01
20 | C10A G17U C31G | 0.02
21 | C10A C15G A24U C31U | 0.01
22 | C10A G29U G44C | 0.32
23 | C10A G21A A26U G36U G40A | 0.01
24 | C10A G40U C46U | 0.03

Row | Variant | self-cleavage
25 | C10A G17A A24C G30U | 0.04
26 | C10A G19C G35U C37U | 0.01
27 | C10A G33C C37U | 0.02
28 | C10A C15G A16U G17A G22A U32G | 0.07
29 | C10A G30U U38A G40A | 0.02
30 | C10A C15A U20A U32A | 0.01
31 | C10A G36A A41C | 0.02
32 | C10A C15U A26U G33U G36A | 0.03
33 | C10A C13A G17A C23A | 0.04
34 | C10A C15A U20A G29U C42G | 0.01
35 | C10A G33C G40A | 0.07
36 | C10A C18G G22U C45U | 0.07
37 | C10A C13A A16G G44U | 0
38 | C10A G29U A39U A41C C46U | 0.03
39 | C10A C18A G30A G35U C45U | 0.01
40 | C10A G19U G33U | 0
41 | C10A C13U U38C G44C | 0.03
42 | C10A G17U C18G C23U | 0.02
43 | C10A U20A A26C | 0.01
44 | C10A C23A G29A C46G | 0.01
45 | C10A C23U A25G G33U | 0
46 | C10A C13G U28C G29U | 0.02
47 | C10A G27U G33C | 0.02
48 | C10A G29C G30A | 0.05

Row | Variant | self-cleavage
49 | C10A G35C U43A | 0.05
50 | C10A C18A G40U | 0.02
51 | C10A G19A A26C G40U | 0.02
52 | C10A C15U C18A | 0.09
53 | C10A C15U C18A G22A G29A | 0.06
54 | C10A C15U G17A A41C | 0.04
55 | C10A G19U U28G | 0.03
56 | C10A C31G U32C G36U C37A C46A | 0.01
57 | C10A G27C G29U U32A | 0.01
58 | C10A A16U G30U | 0.05
59 | C10A C15A G22U G36U C46U | 0.02
60 | C10A G22U A26C G30U U43A | 0
61 | C10A G21U G29A C46G | 0.03
62 | C10A C13U G21A | 0.01
63 | C10A A26C G30U | 0.01
64 | C10A G19U G36U C37A | 0
65 | C10A G21A A26U | 0
66 | C10A G22U C23A | 0.04
67 | C10A C18A A26C C42G G44C | 0
68 | C10A G21A C23U C31U G44C | 0.01
69 | C10A C13A C45A | 0.01
70 | C10A G17U G22C | 0.06
71 | C10A A26C G33U A41U | 0.08
72 | C10A C13U C37A | 0.03

Row | Variant | self-cleavage
73 | C10A G19C G22C | 0.02
74 | C10A G27U U34G | 0.06
75 | C10A C15A G22C G29U | 0.04
76 | C10A G21C G40A U43G | 0.01
77 | C10A A16U G27A G33U A41G | 0.01
78 | C10A G33U A41C | 0.03
79 | C10A C37U A41G | 0.01
80 | C10A G19U G33U G36A | 0.01
81 | C10A G22U C31A | 0.01
82 | C10A C31A U43A | 0
83 | C10A A39G A41C | 0
84 | C10A C18A A24G | 0.05
85 | C10A C15U G21C | 0.1
86 | C10A A24G G29U C31G | 0.03
87 | C10A C15A G36C | 0.01
88 | C10A G22C G40C | 0.03
89 | C10A G29C C31G | 0.02
90 | C10A G17A G29A | 0.05
91 | C10A C23A G29C C42U | 0.01
92 | C10A G36A C45U | 0
93 | C10A G35A C37A A39G | 0.01
94 | C10A A39G C45U | 0
95 | C10A C15U G27A G29C | 0.46
96 | C10A A25G A26U C31U | 0.01

Row | Variant | self-cleavage
97 | C10A C18A G33A | 0
98 | C10A C31A G44U | 0.01
99 | C10A A26C C37U C46A | 0
100 | C10A G27C G36C C45U | 0.06
101 | C10A A39C G44C | 0.05
102 | C10A A24U U28G G29U | 0.01
103 | C10A C18G A25C G27C | 0.53
104 | C10A G17A U32C | 0
105 | C10A C13U G30U C37U | 0.01
106 | C10A G27C A41C | 0.01
107 | C10A G22U U38A | 0.22
108 | C10A C23U U43A | 0.01
109 | C10A C23U A39U C45A | 0.06
110 | C10A G17C C18G | 0.01
111 | C10A A41C G44C C45A C46G | 0.04
112 | C10A C18G U34A | 0.05
113 | C10A C18U G44A | 0.05
114 | C10A C18G G30A | 0.07
115 | C10A C31A U38C C46A | 0.01
116 | C10A G19U G21C G22U C23A U28C | 0
117 | C10A A24C U28G G29U | 0.06
118 | C10A C18U C45A | 0.02
119 | C10A G21U U34G | 0.01
120 | C10A C31U G33U | 0.03

Row | Variant | self-cleavage
121 | C10A C18U A26C G35C A39G | 0.01
122 | C10A G17U G21A A24U G33A C42G | 0
123 | C10A C13G A24G C42G | 0
124 | C10A G21A G22C A26G | 0.05
125 | C10A A16U G27C | 0.04
126 | C10A C13A G33U | 0.17
127 | C10A A16U G19A G27A U34A | 0.02
128 | C10A C15A G19A U28C | 0.01
129 | C10A C13U C46G | 0.01
130 | C10A C13U C42G | 0.02
131 | C10A C15A U28G | 0.02
132 | C10A G19U C37A | 0
133 | C10A A39G C42G | 0.01
134 | C10A A41C U43C C45U | 0.01
135 | C10A G27U C31G C46A | 0.04
136 | C10A A25G U32C G40C C46U | 0
137 | C10A A16U U20C | 0.01
138 | C10A A25C U32G C42A | 0
139 | C10A C15G G17C | 0.02
140 | C10A G33C C45A | 0.02
141 | C10A C15A G17U A41C | 0.01
142 | C10A G22A U38C | 0.45
143 | C10A A16U G33C | 0.03
144 | C10A C13G G44U | 0.01

Row | Variant | self-cleavage
145 | C10A C18A C45U | 0.01
146 | C10A G35A G36C | 0.02
147 | C10A G30A G33U C42U C46A | 0.02
148 | C10A C23U G40U G44C C45G | 0.03
149 | C10A G27U U43C | 0.02
150 | C10A G30C G36C G40U C45G | 0.02
151 | C10A C23U A25U A26U C45U | 0.01
152 | C10A G22C G44C | 0.02
153 | C10A G22U A26G C46U | 0.03
154 | C10A C23G G44A | 0.02
155 | C10A G27A U43A | 0
156 | C10A C31U U32C | 0.07
157 | C10A C37A A39C A41U | 0.02
158 | C10A A26G G44A | 0.03
159 | C10A G22C A25C | 0.03
160 | C10A C23A C42A | 0.02
161 | C10A G17C U28C C45G | 0.52
162 | C10A A24G G36C | 0.01
163 | C10A A26U G27C C37G C42G U43G | 0
164 | C10A C18G C23U U34A C42G G44U | 0
165 | C10A G33A G40A | 0.03
166 | C10A G33A G40U | 0.02
167 | C10A A26C A39C C46A | 0.01
